Laboratory results from publication PMC6919601, “Identification of Plasmodium dipeptidyl aminopeptidase allosteric inhibitors by high throughput screening” (PLoS ONE, 2019).
About 230 (0.21%) of roughly 110,000 compounds showed an effect of 50% or more. This is one part of the list.

Target: DPAP1 (Plasmodium falciparum, UniProt Q8IIJ9)
Assay: primary screen, percent inhibition; read by cleavage of a fluorogenic dipeptide substrate; higher = more effect of the substance
Design: species or system P. falciparum D10 trophozoite lysates; single well
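Also: 30 min substrate incubation versus DMSO and 10 µM JCP410 controls.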

Chain of DPAP1 (Q8IIJ9 whole entry, looked up): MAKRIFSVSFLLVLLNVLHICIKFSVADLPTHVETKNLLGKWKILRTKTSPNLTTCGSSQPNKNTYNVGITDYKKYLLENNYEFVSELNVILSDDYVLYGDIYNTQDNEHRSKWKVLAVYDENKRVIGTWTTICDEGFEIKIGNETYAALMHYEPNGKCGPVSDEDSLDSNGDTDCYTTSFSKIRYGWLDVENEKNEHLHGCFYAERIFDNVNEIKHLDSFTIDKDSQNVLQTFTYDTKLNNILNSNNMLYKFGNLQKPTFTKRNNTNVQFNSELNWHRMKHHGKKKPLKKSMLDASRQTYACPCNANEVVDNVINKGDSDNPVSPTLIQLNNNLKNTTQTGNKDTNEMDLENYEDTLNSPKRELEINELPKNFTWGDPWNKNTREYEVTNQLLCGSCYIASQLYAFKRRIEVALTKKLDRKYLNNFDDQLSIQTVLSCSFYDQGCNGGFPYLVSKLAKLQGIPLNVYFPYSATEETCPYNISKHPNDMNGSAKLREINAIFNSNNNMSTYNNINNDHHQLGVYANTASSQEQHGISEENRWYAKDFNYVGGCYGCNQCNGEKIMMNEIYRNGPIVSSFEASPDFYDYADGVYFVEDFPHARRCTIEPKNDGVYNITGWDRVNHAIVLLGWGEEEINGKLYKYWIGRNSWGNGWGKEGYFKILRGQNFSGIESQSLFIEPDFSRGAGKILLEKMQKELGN

Compound	% Inhibition @ 10 uM [%]
O=C(NCCCN1CCCC1=O)c1cc2c(s1)-c1ccccc1S(=O)(=O)C2	-10
COc1ccc(-c2cc(-c3ccccc3)c(C#N)c(S(C)=O)n2)cc1 (stereo not drawn)	2.95
Oc1nc(Nc2ccc3ccccc3c2)nc(N2CCOCC2)n1	-5.52
Cc1cc(NC(=O)c2ccc(COc3ccc(Cl)c(C)c3)o2)no1	0.0504
O=C(COc1cccc(Cl)c1)Nc1ccc2ccccc2c1	0.145
COc1cc(NC(=O)Cc2ccc(Cl)cc2)ccc1NC(=O)c1ccco1	-5.7
CCOCCCNC(=O)C1CCN(S(=O)(=O)c2c(C)noc2/C=C\c2ccc(OC)cc2)CC1	-4.96
Cc1ccccc1S(=O)(=O)Cc1ccc(C(=O)NC(C)c2ccccc2)o1 (stereo not drawn)	0.458
Cc1ccc2c(c1)C(SCC(=O)NCCc1ccccc1)CC1(CCCC1)O2 (stereo not drawn)	-0.971
CCOc1cc(CNc2ccccc2)ccc1OC	-0.48
Cc1cc(-c2ccc(C)c(S(=O)(=O)N3CCCCC3C)c2)on1 (stereo not drawn)	-8.89
O=C(Nc1ccc(S(=O)(=O)N2CCCCC2)cc1)c1ccc(Cl)cc1	5.66
OCc1cnc(O)nc1O	1.91
Cc1cccc(NC(=O)[C@@H]2C3C=CC(C3)[C@@H]2C(=O)O)c1C (stereo partly drawn)	-8.21
CN1CCN(C(=O)COc2ccccc2Cl)CC1	0.727
COc1cc(OC)cc(C2=N/C(=C\c3ccc(C)o3)C(=O)O2)c1	1.81
CCN(CC)c1ccc(C2C3=C(O)CCCC3=NC(C)=C2C(=O)Nc2c(F)cccc2F)cc1 (stereo not drawn)	-5.72
Cc1ccc(C2=NS(=O)(=O)N(C)C(C(=O)N3CC4(C)CC3CC(C)(C)C4)=C2)cc1 (stereo not drawn)	3.92
c1ccc(-c2cn3ccsc3n2)cc1	1.54
Oc1ccc(C2=Nn3c(nnc3-c3ccccc3Br)SC2)cc1O	-0.112
COC(=O)c1ccc(-n2c(=O)c3cc4c(=O)n(-c5ccc(C(=O)OC)cc5)c(=O)c4cc3c2=O)cc1	-3.16
Cc1ccc2c(c1)c1c3n2CCN(CC(O)c2ccc(Br)cc2)C3CCC1 (stereo not drawn)	1.08
CN1CCN(C2=NC(=O)/C(=C/c3ccc(Cl)c(Cl)c3)S2)CC1	7.76
C=CCn1c(=N)n(CCCOc2ccccc2)c2ccccc21	-4.39
CCC(C)NC(=O)c1ccc2c(SCC(=O)O)c3c(nc2c1)CCCC3 (stereo not drawn)	-1.84

Compound	% Inhibition @ 10 uM [%]
Cc1c(C(=O)N2CCNCC2)oc2ccccc12	-0.671
COc1ccc(N2CCN(C(=O)CC#N)CC2)cc1	-0.641
COc1ccccc1/C=c1\sc2nc(-c3ccccc3OC)nn2c1=O	0.561
COc1cc(C=O)ccc1Oc1nc2ccccc2n2cnnc12	1.49
CC(C)C(=O)n1nc(-c2ccccc2)nc1NCc1ccc(F)cc1	-2.91
Cc1c(NC(=O)c2ccc(C)c3ccccc23)cccc1-c1nc2ncccc2o1	0.0538
CCCN(CCC)C(=O)c1cc(-c2ccco2)[nH]n1	3.97
O=S(=O)(c1ccccc1F)N1CCN(c2ccc(Cl)c(Cl)c2)CC1	-2.22
CC(=O)COc1ccccc1OCC(=O)O	-0.0267
Cc1ccc(C(=O)O)cc1S(=O)(=O)N1CCCCC1	4.12
CCOC(=O)c1c(C)c(-c2ccccc2)n(CC(=O)Nc2nnc(SCC)s2)c1C	4.88
CCOC(=O)/C=C(\C)N1N=C2c3cc(OC)ccc3CCC2C1c1ccc(F)cc1 (stereo not drawn)	6.33
COc1cc(N(CC(=O)N2CCCCC2)S(=O)(=O)c2ccccc2)cc(OC)c1OC	0.231
COc1ccc(CN2CCN(Cc3ccccc3)CC2)cc1Br	1.34
COc1ccccc1NC(=O)c1c(C)nc(Nc2nc3ccccc3o2)nc1C	-6.66
CCC(C)NC(=O)CN1CCN(Cc2cccc(C)c2)C1=O (stereo not drawn)	-4.76
O=C(Nc1cccc(F)c1)c1cc(-c2ccco2)nc2ccccc12	-1.74
O=C(c1ccco1)N1CCN(C(=O)C2CC(c3ccccc3F)=NO2)CC1 (stereo not drawn)	7.39
CC(Oc1ccccc1F)C(=O)Nc1sc2c(c1C(=O)NCc1ccco1)CCCC2 (stereo not drawn)	1.57
Cc1cc(C)c2nc3s/c(=C\c4ccco4)c(=O)n3c2c1	-3.38
CCC(C)C(=O)NCCc1ccc(S(N)(=O)=O)cc1 (stereo not drawn)	2.95
Cc1ccccc1S(=O)Cc1ccc(C(=O)N2CCN(C3CCCCC3)CC2)o1 (stereo not drawn)	4.14
O=C(CC1NC2CCCCC2NC1=O)Nc1ccc2c(c1)OCCO2 (stereo not drawn)	0.843
COc1ccc(NC2=C(Cl)C(=O)N(Cc3ccccc3)C2=O)cc1	-0.305
CC1CC(C)CN(S(=O)(=O)N2CCCC(C(=O)NC(C)c3ccccc3)C2)C1 (stereo not drawn)	2.18

Compound	% Inhibition @ 10 uM [%]
CN1C(=O)C2(C(C#N)=C(N)OC3=C2C(=O)CCC3)c2ccccc21 (stereo not drawn)	-0.413
O=C(CCN1N=C(c2ccccc2)CCC1=O)NCCCN1CCCC1=O	-2.72
CCn1c(C(=O)NCc2cccnc2)cc2oc3ccccc3c21	-2.17
Cc1ccc(Oc2nc3c(C)cccn3c(=O)c2/C=C(\C#N)C(=O)N2CCOCC2)cc1	3.63
Cc1nn(CC(=O)NC2CCCCCC2)c(=O)c2cccn12	-9.69
N#Cc1c(O)nc2c(oc3ccccc32)c1-c1ccccc1	6.17
CCCCO/C(O)=C1/C(C)=NC(=S)NC1c1ccc(N(C)C)cc1 (stereo not drawn)	0.345
CC(C)(C)C(=O)Nc1nc(-c2ccccc2)ns1	-1.61
O=C1N=C(Nc2ccc(Cl)cc2)S/C1=C\c1ccc(C(=O)O)cc1	17.5
CCN1CCN(CCCNC(=O)Cn2ncc3c(C)n(Cc4ccccc4)c(C)c3c2=O)CC1	4.4
Cc1nn(C(C)C(=O)NCCc2cccs2)c(=O)c2nn(-c3ccccc3)c(C)c12 (stereo not drawn)	-2.87
Cc1ccc(S(=O)(=O)c2cc3c(=O)n4ccccc4nc3n(Cc3ccncc3)c2=N)cc1	-2.6
COc1ccc(/C=C(/NC(=O)c2ccco2)C(=O)Nc2ccccc2C)cc1	3.74
O=C(O)C1CCCCC1C(=O)N1CCCCCC1 (stereo not drawn)	1.96
CCC(C(=O)NCc1ccccc1)n1c2ccccc2c2cnnc(O)c21 (stereo not drawn)	-3.79
COc1ccc(CCN(C(=O)c2ccccc2)C2=CC3CCC(C2)N3C)cc1OC (stereo not drawn)	3.65
COc1ccc(S(=O)(=O)Nc2cccc(N(C)S(C)(=O)=O)c2)cc1OC	-3.71
Cc1ccc(C2CC(C(F)(F)F)n3ncc(C(=O)O)c3N2)cc1 (stereo not drawn)	-6.41
COc1cccc(C(=O)Nc2ccc(C)c(C)c2)c1	0.661
COc1cccc(-c2nc(CS(=O)(=O)CC(=O)NCc3ccccc3OC)c(C)o2)c1	-3.7
CCOC(=O)c1c(NC(=O)CCNS(=O)(=O)c2ccc(Cl)cc2)sc(C)c1C	6.11
CC(C)Oc1ccc(C(=O)N2CCCc3ccccc32)cc1	0.0265
COc1ccc2ncc(S(=O)(=O)c3ccccc3)c(N3CC(C)CC(C)C3)c2c1 (stereo not drawn)	-8.02
Cc1c2cnn(CC(=O)NCCCN3CCCC3=O)c(=O)c2c(C)n1Cc1ccccc1F	-2.17
CCN1CCN(Cc2ccc(SC)cc2)CC1	2.47

Compound	% Inhibition @ 10 uM [%]
CNC(=O)COc1ccc(-c2nn(C)c(=O)c3ccccc23)cc1	3.63
CC1CCN(C(=O)C2CCCCC2C(=O)O)CC1 (stereo not drawn)	2.01
c1coc(CN2CN(c3nc4ccccc4s3)CN(c3nc4ccccc4s3)C2)c1	1.91
COc1cc(C=C2C(=O)N(C)C(=O)N(C)C2=O)cc(Br)c1O	2.54
Cc1cc(C(F)F)nc2sc(C(=O)Nc3ccc4c(c3)OCO4)c(N)c12	10.8
Cc1nc2c(c(C)nn2C)c(C)c1CCC(=O)N1CCOCC1	-2.45
O=C(Nc1ccc(-c2ccc([N+](=O)[O-])cc2)cc1)c1cccc([N+](=O)[O-])c1	-4.31
OCC1CCCN(Cc2ccc(Cl)cc2)C1 (stereo not drawn)	-0.833
NC(=O)c1ccc(NC(=O)c2ccc(-c3ccccc3)cc2)cc1	2.51
CCc1c(C)sc(NC(=O)c2cc(OC)cc(OC)c2)c1C(N)=O	-1.44
Cc1ccc(OCC(=O)NCc2ccccc2)cc1	-1.29
O=C1C2C3c4ccccc4C(c4ccccc43)C2C(=O)N1CCN1CCCCC1 (stereo not drawn)	-7.27
Cc1ccc(NC(=O)c2c(-c3ccccc3)noc2C)cc1Cl	-0.865
NC(=O)c1cc(S(=O)(=O)NCC2CCC(C(=O)NC3CCCCC3)CC2)cs1 (stereo not drawn)	-7.06
COc1ccc(CNC(=O)CCCn2c3ccccc3c3cnnc(O)c32)cc1	-3.79
CCN(c1ccccc1)S(=O)(=O)c1ccc(NC(=O)c2ccco2)cc1	-5.7
CC1CCCC(C)N1C(=O)Nc1ccccc1 (stereo not drawn)	-1.92
CCN(CC)CCCN(C)C(=O)c1nn(C)c2c1CSc1ccccc1-2	3.3
COc1nsnc1NS(=O)(=O)c1ccc(-n2c(S)nnc2-c2ccc3ccccc3n2)cc1	3.93
Cc1ccc(S(=O)(=O)Nc2ccc(S(=O)(=O)N(C)Cc3ccccc3)cc2)cc1	0.889
O=C(Cn1ncc2c(=O)oc3ccccc3c21)N1CCC2(CC1)OCCO2	-6.62
Cc1ccc(N(CC(O)Cn2c3ccccc3c3ccccc32)S(C)(=O)=O)cc1 (stereo not drawn)	8.05
CN(Cc1ccccc1)C(=O)C1CCN(S(C)(=O)=O)CC1	-2.8
Cc1ccc(-n2ncc3c(NCC4CCCO4)ncnc32)cc1Cl (stereo not drawn)	0.759
